Drawing on PubChem BioAssay AID1346428 (National Center for Advancing Translational Sciences (NCATS), 2018), this text covers activation for 54 compounds.

About 1,200 (2.5%) of roughly 48,000 compounds were called active. Inconclusive results (about 2%) are left out.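 The calls were made as follows: active = activation of at least 60% and not above a set upper limit (about 1 call in 100 departs from these limits); inconclusive = activation of 40% to 60%, or above that upper limit; inactive = activation under 40%.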 Some of the results follow.

Sequence of UniProt O75388 (O75388 whole entry, looked up): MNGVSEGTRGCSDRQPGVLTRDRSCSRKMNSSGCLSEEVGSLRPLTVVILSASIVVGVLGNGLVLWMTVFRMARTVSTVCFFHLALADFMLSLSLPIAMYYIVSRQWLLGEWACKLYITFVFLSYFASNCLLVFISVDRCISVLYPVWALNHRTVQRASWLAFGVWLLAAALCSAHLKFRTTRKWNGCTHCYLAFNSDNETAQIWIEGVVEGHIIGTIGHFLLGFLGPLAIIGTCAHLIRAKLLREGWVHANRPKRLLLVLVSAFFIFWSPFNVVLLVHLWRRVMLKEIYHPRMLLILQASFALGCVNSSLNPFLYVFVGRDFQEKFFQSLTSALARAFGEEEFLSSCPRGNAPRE

This test addresses Probable G-protein coupled receptor 32 (Homo sapiens) (UniProt O75388). The experiment in a line: qHTS for Agonists of Human Resolvin D1 Receptor DRV1. Also: 0% is about no effect. The following applies: CHO-K1 GPR32 beta-arrestin PathHunter luminescence, 90 min; at 76.9 µM; hits give high values; zero percent set by DMSO-only wells. In a few lines:
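Using DMSO wells as EC0, agonist-induced signal was taken as chemiluminescence from beta-Gal reconstituted upon beta-arrestin recruitment to GPR32 in CHO-K1 cells after 90 min compound treatment.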
For orientation: Quantitative high-throughput screening tests each substance at several concentrations.
In the case of `Cc1c(C(=O)OC2CCCCC2)[nH]c2c1C(=O)CC(c1ccc(F)cc1)C2` (centres undefined), the activation is inactive: -5.86%.

Take `Cc1cccc(NC(=O)c2ccc(-n3c(C)nnc3C)cc2)c1`: the activation was inactive: -3.49%.

Take `Cc1ccc(-n2ncc3c(N4CCCCCC4)ncnc32)cc1Cl`: the activation was inactive: 14.4%.

Regarding `CCC(=O)Nc1ccc(Cl)c(-c2nc3ccccc3[nH]2)c1`, the activation is inactive: 23.1%.

As for `COc1ccccc1CN1CCC(CNC(=O)c2cnn(-c3ccccc3Cl)c2C2CCN(C(=O)OC(C)(C)C)CC2)CC1`, the activation was inactive: -30.3%.

Regarding `O=C(CSc1ncccc1C(=O)Oc1ccccc1Cl)Nc1ccc(C(F)(F)F)cc1Cl`, the activation was inactive: -11.6%.

`Cc1ccc(O)c(NC(=O)C2=CC(c3ccco3)=NS(=O)(=O)N2C)c1`: the activation is inactive: -2.67%.

As to `COC(=O)c1ccc(NC(=O)C(=O)NCCc2csc(-c3ccc(F)cc3)n2)cc1`, the activation was inactive: -6.78%.

For `COc1ccc(N2CCN(Cc3nc4c(c(=O)[nH]c(=O)n4C)n3Cc3ccccc3C)CC2)cc1`, the activation is inactive: -8.92%.

For the compound `Cc1csc2nc(COC(=O)CNC(=O)c3ccccc3)cc(=O)n12`, the activation is inactive: 32.4%.

On to `COc1ccc(NC(=O)C2CCCN(S(=O)(=O)c3ccc(F)cc3)C2)cc1` (centres undefined), for which the activation is inactive: 5.3%.

As to `O=c1oc2ccccc2cc1-c1cn2cc(Cc3cc(Cl)ccc3Cl)sc2n1`, the activation is inactive: -4.3%.

With `Cc1ccc(CN(C(=O)COc2ccccc2[N+](=O)[O-])c2ccccn2)o1`, the activation was inactive: 2.23%.

For `CCc1nnc(NC(=O)CSc2nc3c([nH]c4ccccc43)c(=O)n2-c2ccc(Cl)cc2)s1`, the activation is inactive: -12.3%.

As to `FC(F)(F)c1cc(-c2ccccc2)nc2cc(-c3ccccc3)nn12`, the activation was inactive: 21.8%.

With `CCN(CC)S(=O)(=O)c1ccc2c(c1)N(CC(=O)Nc1cccc(C#N)c1)C(=O)CO2`, the activation was inactive: -26.8%.

As to `COc1ccc(NC(=O)Cn2c(=O)oc3cc(S(=O)(=O)N4CCCCCC4)ccc32)cc1OC`, the activation was inactive: 48.7%.

In the case of `Cc1ccc2onc(CC(=O)N3CCN(c4cccc(Cl)c4)CC3)c2c1`, the activation was inactive: -32.1%.

For the compound `Cc1cc(F)ccc1NC(=O)Cn1cc(S(=O)(=O)NC(C)C)c(S(=O)(=O)NC(C)C)c1`, the activation was inactive: 7.18%.

In the case of `CCCCSc1nc2sc3c(c2c(=O)n1-c1ccccc1C)CC(C)(C)OC3`, the activation is inactive: -7.14%.

With `COc1ccc(NC(=O)CNC(=O)Cn2c(C)cc3ccccc3c2=O)c(OC)c1`, the activation was inactive: -3.41%.

In the case of `O=C(c1ccccc1)N1CCN(CCc2ccccn2)CC1`, the activation is inactive: 4.34%.

With `CCOc1ccc(-n2cc(-c3ccccc3)c3c(Nc4cccc(F)c4)ncnc32)cc1`, the activation was inactive: -6.12%.

For the compound `CCN(Cc1ccccc1)S(=O)(=O)c1cc(Br)cc2c1N(C(=O)C1CC1)CC2`, the activation was inactive: -0.57%.

As for `CCOc1ccc(C(=O)Nc2nnc(SCc3cc(=O)n4ccccc4n3)s2)cc1`, the activation was inactive: -4.02%.

Consider `COc1cccc(C(=O)Nc2c(C(=O)Nc3ccc(F)cc3)oc3ccccc23)c1OC`, for which the activation is inactive: 1.51%.

`CCOc1ccc(-c2nnc(SCC(=O)Nc3cccc(C#N)c3)o2)cc1`: the activation was inactive: 7.3%.

Take `CCCCOC(=O)c1c(C)oc2c1cc(NS(=O)(=O)c1cc(OC)ccc1OC)c1ccccc12`: the activation is inactive: 0.0799%.

Turning to `CC1CCN(C(=O)Cn2c(-c3cccs3)cc3cc(Cl)ccc32)CC1`, the activation is inactive: -13.1%.

Consider `COc1cccc(NC(=O)Nc2ccc3c(c2)N(C)C(=O)c2ccccc2S3)c1`, for which the activation was inactive: 4.16%.

As for `COc1ccc(-c2c(C)c3ccc(O)c(CN4CCOCC4)c3oc2=O)cc1OC`, the activation is inactive: 11%.

Regarding `Cc1ccc(C)c(NC(=O)C(CC(C)C)N2Cc3ccccc3C2=O)c1` (centres undefined), the activation was inactive: -18.3%.

As for `Cc1cc(C)c2c(c1)c(C)cc1nnc(SCC(=O)c3ccccc3)n12`, the activation was inactive: -14%.

With `O=C(CSc1nccn1Cc1ccc(F)cc1)NCc1ccco1`, the activation is inactive: -10.7%.

Regarding `CCCN1Cc2cccc(C(=O)Nc3cc(Cl)ccc3C)c2C1=O`, the activation is inactive: -5.35%.

As for `Cc1cccc(NC(=O)c2sc3ncnc(N(C)C4CCCCC4)c3c2C)c1C`, the activation was inactive: 0.84%.

Regarding `CC(C)(C)c1ccc(C(=O)Nc2ccc(-c3nc4ccccc4o3)c(O)c2)cc1`, the activation was inactive: -2.24%.

With `O=C(CN1C(=O)c2ccccc2Sc2ccc(C(=O)N3CCOCC3)cc21)Nc1ccc(Cl)cc1F`, the activation was inactive: -8.73%.

In the case of `CCN1CCN(Cc2c(O)ccc3oc(C)c(C(=O)Nc4cccc(C(F)(F)F)c4)c23)CC1`, the activation was inactive: -4.4%.

With `COc1cccc(NC(=O)c2c(C)oc3nc(C)nc(N4CCCC4)c23)c1`, the activation was inactive: -10.6%.

On to `CCN(CC)c1ccc2cc(-c3nc4sc5c(c4c(=O)[nH]3)CCC(C(C)(C)C)C5)c(=O)oc2c1` (centres undefined), for which the activation was inactive: -4.03%.

For `Cc1cccc(C)c1NC(=O)c1cc(S(=O)(=O)N2CCc3ccccc3C2)ccc1F`, the activation was inactive: -2.44%.

Regarding `CCC(=O)N1CCc2cc(S(=O)(=O)CCC(=O)N3CCN(c4cccc(C)c4C)CC3)ccc21`, the activation was inactive: -16%.

`COc1ccc(CC(=O)Nc2nc3c(s2)CCCC3)cc1`: the activation was inactive: -9.33%.

Take `Cc1ccc2c(c1)N(C(=O)CCC(=O)NCc1cccc(F)c1)CC(C)O2` (centres undefined): the activation was inactive: -14.6%.

`COc1cccc2cc(-c3nc(-c4ccc(Cl)cc4)cs3)c(=O)oc12`: the activation is inactive: 16.7%.

On to `CCOC(=O)c1cccc(NC(=O)CCS(=O)(=O)c2ccc3c(c2)CCN3C(=O)CC)c1`, for which the activation is inactive: -15.2%.

Regarding `O=C(c1ccc(Cl)cc1)n1nc(-c2cccnc2)nc1NCc1ccc(F)cc1`, the activation is inactive: -11.3%.

Regarding `CCOc1ccc(-c2cc3c(=O)n(CC(=O)NCc4ccc(F)cc4)ccn3n2)cc1`, the activation is inactive: 6.45%.

`CCCCOc1ccc(C(=O)N(Cc2ccccc2)C2CCS(=O)(=O)C2)cc1` (centres undefined): the activation is inactive: -10.4%.

With `CCn1c(=O)c2sccc2n2c(CCCC(=O)N3CCN(c4ccc(F)cc4)CC3)nnc12`, the activation was inactive: -7.28%.

With `CC(=O)c1cccc(NC(=O)c2ccc3nc(Cc4ccccc4)oc3c2)c1`, the activation is inactive: 3.31%.

Regarding `COC(=O)Cc1c(C)c2ccc3c(c2oc1=O)CN(Cc1ccccc1Cl)CO3`, the activation was inactive: -9.89%.

Regarding `NC1CONC1=O` (centres undefined), the activation was inactive: 2.28%.
